Some of the results follow. At the low end of the ranking the order means little.
The sequences below were run against SIX1 homeodomain (reference allele) (UniProt Q15475) (assay: universal protein binding microarray). Settings: Universal all-10-mer PBM (8x60K, AMADID 030236), 300 nM GST-tagged protein, Alexa Fluor 488 anti-GST; buffer, salt, pH and temperature not stated; high values mean tight binding; most listed sequences are background and not binding sites; double strand, one strand shown.

Row | Sequence | binding signal
1 | ATCGACAA | 0.0887 E-score
2 | CCGGTTAA | -0.0542 E-score
3 | TAAGTGAA | 0.0328 E-score
4 | AAGAATTA | -0.241 E-score
5 | CGGGGAGA | 0.182 E-score
6 | CAGTCCCG | -0.217 E-score
7 | ATCCAATA | 0.255 E-score
8 | CAATTTAG | 0.0138 E-score
9 | CTGTGCCC | -0.0384 E-score
10 | CCCTGATC | 0.33 E-score
11 | ACTCCGGC | -0.12 E-score
12 | CCCCAAGG | 0.0389 E-score
13 | TCCGTCCA | 0.0778 E-score
14 | ATCAGAGA | 0.225 E-score
15 | TAGTGCGA | -0.158 E-score
16 | CCGGGGAA | -0.109 E-score
17 | AAAATACT | 0.0214 E-score
18 | CCAATTTC | -0.151 E-score
19 | AATCAATG | -0.143 E-score
20 | CGTGTCCC | -0.0253 E-score
21 | GACAGGGC | -0.159 E-score
22 | AAGCCTAG | -0.0716 E-score
23 | CAATTGTC | -0.135 E-score
24 | TCAACACA | -0.0488 E-score
25 | CTTCTGAC | -0.259 E-score

Row | Sequence | binding signal
26 | GACAGGTC | -0.186 E-score
27 | AGCCAATA | -0.047 E-score
28 | AAATAACC | -0.184 E-score
29 | AACCTTGA | -0.00602 E-score
30 | AGAAAAAG | -0.172 E-score
31 | CCTCGTCA | -0.114 E-score
32 | CTTATAAC | 0.0489 E-score
33 | AACACCGT | 0.211 E-score
34 | CGATCGCC | 0.257 E-score
35 | CCGGTACG | -0.149 E-score
36 | ATAAGTTC | -0.0219 E-score
37 | CACGGCAC | -0.0924 E-score
38 | AGTGTTGG | 0.00725 E-score
39 | GACTCGGC | -0.158 E-score
40 | CGCTATCA | 0.34 E-score
41 | ACCTGTGC | -0.174 E-score
42 | CCCATATA | 0.309 E-score
43 | AAGTACTG | -0.18 E-score
44 | CCGGAAGG | -0.0607 E-score
45 | AGTGGCAT | -0.166 E-score
46 | ACATTGAC | -0.0392 E-score
47 | ATACTCAG | 0.35 E-score
48 | ACCCTCTA | 0.00043 E-score
49 | CCAGCATC | -0.0919 E-score
50 | TAGTGGCA | -0.0942 E-score

Row | Sequence | binding signal
51 | CAGATGAC | -0.0271 E-score
52 | GATTGGTA | 0.187 E-score
53 | GTGCTAAC | -0.141 E-score
54 | GATTCCGA | 0.0823 E-score
55 | CGACTAAG | -0.0501 E-score
56 | CCAGCCGA | -0.114 E-score
57 | AAATCCAA | -0.106 E-score
58 | AAACGGCG | -0.115 E-score
59 | GAAACAAC | -0.0446 E-score
60 | CATTAGTA | 0.0553 E-score
61 | ATATCCGC | 0.43 E-score
62 | AAACGATT | -0.112 E-score
63 | ATTTGTTG | -0.0928 E-score
64 | GCCTTGAC | -0.191 E-score
65 | GAGGAAGC | -0.161 E-score
66 | GTCGGCCA | -0.246 E-score
67 | CAAACCCG | 0.174 E-score
68 | CAGTCAGG | -0.19 E-score
69 | AGTCGTTA | -0.169 E-score
70 | TCGTAGCA | -0.00509 E-score
71 | AAACAGTT | -0.319 E-score
72 | CCTAAGCC | 0.0673 E-score
73 | CGCTCCTC | -0.142 E-score
74 | ACGACCAT | -0.0269 E-score
75 | GATAGTGC | 0.258 E-score

Row | Sequence | binding signal
76 | AGGCGCCG | -0.246 E-score
77 | CCGGGGCG | 0.152 E-score
78 | AAATGCGA | -0.0358 E-score
79 | AATTAAAT | -0.0903 E-score
80 | GCAGGGGC | -0.11 E-score
81 | GCTCCAAC | -0.195 E-score
82 | ACTAATAG | 0.000975 E-score
83 | ACACGCAA | 0.0232 E-score
84 | AGAGGGGC | -0.0242 E-score
85 | CACAGCCA | -0.0169 E-score
86 | CAGTCAAC | -0.274 E-score
87 | ACGGGGTA | 0.134 E-score
88 | ATGAGAAT | 0.112 E-score
89 | AAACTATA | 0.137 E-score
90 | ACTATACA | 0.215 E-score
91 | ACAATATA | 0.164 E-score
92 | AACAAGAT | 0.106 E-score
93 | ACACACGA | -0.0491 E-score
94 | CGCCTGAG | -0.0339 E-score
95 | ACAGGGGG | -0.0607 E-score
96 | AAAGACTG | -0.115 E-score
97 | AAGTTACA | -0.12 E-score
98 | ACGAGCGG | -0.0982 E-score
99 | CCGAAGAA | -0.19 E-score
100 | GGATAGTA | 0.332 E-score

Row | Sequence | binding signal
101 | AGTGGTAA | -0.195 E-score
102 | CGGAAGAG | -0.134 E-score
103 | ATGCGCCC | -0.0158 E-score
104 | GCGCGCTA | -0.161 E-score
105 | ATTGGTGG | -0.0194 E-score
106 | AACCACAT | -0.102 E-score
107 | CATATTCC | 0.0359 E-score
108 | CTCCCCAC | -0.0269 E-score
109 | AAGGCAAA | -0.157 E-score
110 | AGATCGAA | 0.111 E-score
111 | TGGTAACA | -0.0685 E-score
112 | AAATAGAT | 0.236 E-score
113 | CCAGGAGG | 0.104 E-score
114 | CCCGCTCC | -0.0512 E-score
115 | TACATCGA | 0.111 E-score
116 | TCTGCGCA | -0.033 E-score
117 | AGTGGGGG | -0.024 E-score
118 | CGGTGCAA | 0.0597 E-score
119 | CGGTTATC | 0.309 E-score
120 | AACTTGGC | -0.177 E-score
121 | CCGACGAC | -0.0111 E-score
122 | TACCCACA | 0.196 E-score
123 | CAACTCTA | -0.0441 E-score
124 | GAGCCAGA | -0.0265 E-score
125 | CAATTGGC | -0.25 E-score

Row | Sequence | binding signal
126 | TCATTGCA | 0.0262 E-score
127 | ACCAACAC | 0.0946 E-score
128 | CAGCCCCG | -0.222 E-score
129 | ACTTCAGC | -0.213 E-score
130 | ATTACGTG | 0.107 E-score
131 | ATACATTA | 0.223 E-score
132 | AGGTGTAG | 0.128 E-score
133 | ACTGCGAG | -0.0126 E-score
134 | AACCAGAT | 0.25 E-score
135 | GATGCGCA | -0.0453 E-score
136 | ATTAATAG | 0.108 E-score
137 | AATTGTGC | -0.12 E-score
138 | CTAGGATA | 0.356 E-score
139 | ACGAAAGA | -0.179 E-score
140 | AGAATCTC | 0.0712 E-score
141 | GATGAATC | -0.0298 E-score
142 | CACAACTA | -0.0462 E-score
143 | ATTCGTGG | -0.00769 E-score
144 | ATGTTTCG | -0.103 E-score
145 | AATACCTA | 0.289 E-score
146 | AGCTTTCC | -0.286 E-score
147 | GATTCGGA | 0.0449 E-score
148 | AGAATACC | 0.312 E-score
149 | GGGTTACC | -0.078 E-score
150 | AGTATCAG | 0.46 E-score

Row | Sequence | binding signal
151 | ATGCGACA | 0.0591 E-score
152 | CCTGACCA | 0.0126 E-score
153 | CATGCGGG | -0.0794 E-score
154 | AAGCCAAG | -0.366 E-score
155 | AAGATCCT | 0.326 E-score
156 | AGCCCAAC | -0.167 E-score
157 | GAACGCTC | -0.315 E-score
158 | ACATCGAC | -0.0677 E-score
159 | ACCAGCGA | -0.0469 E-score
160 | CGCGACCG | -0.0603 E-score
161 | TCTGCAAA | -0.0747 E-score
162 | ACGGTGTA | 0.255 E-score
163 | GTACCTCA | -0.00259 E-score
164 | CCCCTACG | 0.103 E-score
165 | CCGTTCGC | -0.099 E-score
166 | TATCCCAA | 0.329 E-score
167 | AGTAGCGC | -0.0582 E-score
168 | CATAAAGG | 0.0642 E-score
169 | CAACTCCG | 0.00865 E-score
170 | GTAGTCGA | -0.194 E-score
171 | CTAGATAA | 0.123 E-score
172 | CACCAAGC | 0.00477 E-score
